In doi:10.1101/2025.01.08.631920 (bioRxiv, 2025):

Biological target: the molecule itself
Experiment: cryo-EM structure

B1: Mycobacterium smegmatis type II NADH dehydrogenase (NDH-2) with a C-terminal 3×FLAG tag (enzyme, M. smegmatis, UniProt A0QYD6 1-457, looked up)
chain: MSHPGATASDRHKVVIIGSGFGGLTAAKTLKRADVDVKLIARTTHHLFQPLLYQVATGIISEGEIAPATRVILRKQKNAQVLLGDVTHIDLENKTVDSVLLGHTYSTPYDSLIIAAGAGQSYFGNDHFAEFAPGMKSIDDALELRGRILGAFEQAERSSDPVRRAKLLTFTVVGAGPTGVEMAGQIAELADQTLRGSFRHIDPTEARVILLDAAPAVLPPMGEKLGKKARARLEKMGVEVQLGAMVTDVDRNGITVKDSDGTIRRIESACKVWSAGVSASPLGKDLAEQSGVELDRAGRVKVQPDLTLPGHPNVFVVGDMAAVEGVPGVAQGAIQGGRYAAKIIKREVSGTSPKIRTPFEYFDKGSMATVSRFSAVAKVGPVEFAGFFAWLCWLVLHLVYLVGFKTKIVTLLSWGVTFLSTKRGQLTITEQQAYARTRIEELEEIAAAVQDTEKAAS
stoichiometry N: 2
